# In PubChem BioAssay (Tox21):
# The shares of active, inactive and inconclusive entries below differ from those in the screen. For some assays here: No potency is given beside an inconclusive call; the fits are too rough. The source made the active and inactive calls. Unless noted, calls come from the whole dose curve; as a rule, active = well fitted curve in the direction sought with a large enough effect in the repeat runs; inconclusive = weak or mixed curves; inactive = no such curve, though single readings can be large; an effect the other way counts as inactive or inconclusive.
# Experiments:
# [1] = qHTS assay to identify small molecule antagonists of the progesterone receptor (PR) signaling pathway - cell viability counter screen (AID 1346798); note: % is set by controls: 0 for no effect and ±100 for the full control effect; nearly all actives have a fitted effect of over 50% in size
# Method in brief: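 CellTiter-Glo luminescence; PR-UAS-bla HEK293T, 3,000 cells/well; compound + R5020, 16 hr, 37C/5% CO2; 30 min RT before read.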
# [2] = qHTS assay for small molecule disruptors of the mitochondrial membrane potential (AID 720635); details: HepG2 mitochondrial membrane potential, Mito-MPS dye ratio; ratio activity, negative = MMP loss: at 83.2 µM (top of the series) unless noted; note: % is set by controls: 0 for no effect and ±100 for the full control effect
# Method in brief: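 HepG2 cells exposed to compound 1 hr at 37C, then Mito-MPS dye 30 min. Ratio read of aggregate (540/590 nm) versus monomer (490/535 nm) fluorescence.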
# [3] = target: Estrogen receptor (Homo sapiens) (UniProt P03372); test: qHTS assay to identify small molecule antagonists of the estrogen receptor alpha (ER-alpha) signaling pathway (AID 743069; active = well fitted curve in the direction sought with a large enough effect in the signal ratio in the repeat runs, not every such curve was filed as active; inconclusive = weak or mixed curves, or effect the other way; inactive = no such curve, though single readings can be large or run the other way; the % refers to the signal ratio; note: % is set by controls: 0 for no effect and ±100 for the full control effect); details: HEK293 ER-alpha-UAS-bla, beta-lactamase ratio, antagonist mode; activity, negative = inhibition: at 69.4 µM (top of the series) unless noted
# Method in brief: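 In this cell-based reporter format, GripTite HEK293 cells harbouring ER-alpha-UAS-bla were grown overnight with 2% charcoal-stripped FBS, dosed with DMSO-dissolved compounds, then challenged with 17beta-estradiol. After 18 hr at 37C, beta-lactamase activity was detected by FRET fluorescence.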
# [4] = target: Estrogen receptor (Homo sapiens) (UniProt P03372); test: qHTS assay to identify small molecule agonists of the estrogen receptor alpha (ER-alpha) signaling pathway using the BG1 cell line (AID 743079); details: BG1Luc4E2 cells, ERE-luciferase agonist, 22 h; activation: at 70.3 µM (top of the series) unless noted; note: nearly all actives have a fitted effect of over 20% in size; note: potency is the fitted concentration of half-maximal effect
# [5] = target: Peroxisome proliferator-activated receptor gamma (Homo sapiens) (UniProt P37231); test: qHTS assay to identify small molecule antagonists of the peroxisome proliferator-activated receptor gamma (PPARg) signaling pathway (AID 743191; calls by dose curve; note: % is set by controls: 0 for no effect and ±100 for the full control effect; nearly all actives have a fitted effect of over 30% in size); details: HEK293H PPARg-UAS-bla, beta-lactamase ratio, antagonist, 17 h; ratio activity, negative = inhibition: at 62.6 µM (top of the series) unless noted
# Method in brief: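 GeneBLAzer PPARg UAS-bla HEK293H cells, 5 h post-plating, exposed to compounds 17 h at 37C. LiveBLAzer B/G FRET substrate added for 1 h at room temperature; beta-lactamase reporter read by fluorescence intensity.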
# [6] = qHTS assay to identify small molecule agonists of the vitamin D receptor (VDR) signaling pathway - cell viability counter screen (AID 743224); note: potency is the fitted concentration of half-maximal effect; nearly all actives have a fitted effect of over 50% in size
# Method in brief: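 Counter screen run in the same wells as the VDR-bla reporter assay: CellTiter-Glo luminescence, 30 min at room temperature, after 16 h compound treatment at 37C of cells pre-plated for 4 h.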
# [7] = target: Progesterone receptor (Homo sapiens) (UniProt P06401); test: qHTS assay to identify small molecule agonists of the progesterone receptor (PR) signaling pathway (AID 1346784; calls by dose curve; note: % is set by controls: 0 for no effect and ±100 for the full control effect; nearly all actives have a fitted effect of over 30% in size); details: PR-UAS-bla HEK293T, beta-lactamase FRET ratio, 16 h; activation: at 92.4 µM (top of the series) unless noted
# Method in brief: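 Fluorescence from LiveBLAzer B/G FRET substrate cleavage (2 hr, RT) reported PR activation in PR-UAS-bla HEK 293T cells treated 16 hr at 37C/5% CO2 with compounds; medium contained 2% charcoal-stripped FBS.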
# [8] = Caspase-3/7 induction in HepG2 cells by small molecules, qHTS cell viability counter screen (AID 1346981); note: % is set by controls: 0 for no effect and ±100 for the full control effect; nearly all actives have a fitted effect of over 30% in size
# Method in brief: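 CellTiter-Fluor fluorescence measured viability in the same wells used for Caspase-Glo 3/7. HepG2 (wild type) at 2,000 cells/well were pre-incubated 5 hr, dosed, and given reagent at 16 hr, with 1 hr further at 37C.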
# [9] = target: Cytochrome P450 1A2 (Homo sapiens) (UniProt P05177); test: Cytochrome P450 Family 1 Subfamily A Member 2 (CYP1A2) small molecule antagonists: luciferase reporter qHTS assay (AID 1671199); note: potency is the fitted concentration of half-maximal effect; nearly all actives have a fitted effect of over 50% in size
# Method in brief: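 Luminescence from luciferin formed by CYP1A2 from a proluciferin substrate, read 20 min after detection reagent. Compound was pre-incubated 10 min with enzyme-substrate, and reaction started with NADPH regeneration solution for 1 h at room temperature; furafylline control.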
# [10] = qHTS assay for small molecule agonists of the p53 signaling pathway (AID 651631; calls by dose curve; note: potency is the fitted concentration of half-maximal effect; nearly all actives have a fitted effect of over 15% in size); details: HCT-116 p53RE-bla reporter, beta-lactamase FRET ratio, 16 h; activation: at 73.3 µM (top of the series) unless noted
# Method in brief: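 Testing took place in human colorectal HCT-116 cells with stable p53RE-driven beta-lactamase. After 16 h of compound exposure at 37 °C, a FRET substrate was added and fluorescence recorded 2 h later.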
# [11] = target: Glucocorticoid receptor (Homo sapiens) (UniProt P04150); test: qHTS assay to identify small molecule antagonists of the glucocorticoid receptor (GR) signaling pathway (AID 720692; active = well fitted inhibition curve with a large enough effect in the signal ratio in the repeat runs, not every such curve was filed as active; inconclusive = weak or mixed curves, or effect the other way; inactive = no such curve, though single readings can be large or run the other way; the % refers to the signal ratio; note: % is set by controls: 0 for no effect and ±100 for the full control effect); details: GR-bla HeLa, beta-lactamase FRET ratio, dexamethasone-stimulated, 18 h; activity change, negative = inhibition: at 58.5 µM (top of the series) unless noted
# Method in brief: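 Inhibition of dexamethasone-driven (5 nM final) beta-lactamase expression was measured in GRE-reporter HeLa cells over 18 h at 37C. Fluorescence was read after 2 h with the B/G FRET substrate at room temperature.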
# [12] = qHTS assay to identify small molecule antagonists of the androgen receptor (AR) signaling pathway - cell viability counter screen (AID 743033; note: potency is the fitted concentration of half-maximal effect; nearly all actives have a fitted effect of over 45% in size); details: AR-bla HEK293 viability, CellTiter-Glo luminescence, 16 h; activity change, negative = cytotoxicity: at 58.5 µM (top of the series) unless noted
# [13] = target: Androgen receptor (Homo sapiens) (UniProt P10275); test: qHTS assay to identify small molecule agonists of the androgen receptor (AR) signaling pathway (AID 743036; active = well fitted activation curve with a large enough effect in the signal ratio in the repeat runs, with a control signal flat, not every such curve was filed as active; inconclusive = weak or mixed curves, or effect the other way; inactive = no such curve, though single readings can be large or run the other way; the % refers to the signal ratio; note: % is set by controls: 0 for no effect and ±100 for the full control effect); details: HEK293 AR-UAS-bla GripTite, beta-lactamase FRET ratio, 16 h; activation: at 62.4 µM (top of the series) unless noted
# Method in brief: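 Screening used 2,000 AR-bla HEK293 cells per well, treated 16 h at 37C with test compounds in DMSO alongside positive and DMSO-only controls; beta-lactamase activity was then read by LiveBLAzer B/G FRET fluorescence after 2 h at room temperature.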
# [14] = qHTS assay to identify small molecule antagonists of the thyroid receptor (TR) signaling pathway - cell viability counter screen (AID 743064); details: GH3.TRE-Luc viability, CellTiter-Fluor, 24 h; activity change, negative = cytotoxic: at 70.3 µM (top of the series) unless noted; note: potency is the fitted concentration of half-maximal effect; nearly all actives have a fitted effect of over 50% in size
# Method in brief: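 Viability of T3-stimulated (1 nM final) GH3.TRE-Luc cells is measured by CellTiter-Fluor fluorescence after 23.5 h compound exposure at 37 °C plus 30 min reagent incubation.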
# [15] = qHTS assay to identify small molecule antagonists of the estrogen receptor alpha (ER-alpha) signaling pathway using the BG1 cell line (AID 743080; calls by dose curve;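 note: BG1 cells stimulated with 17beta-estradiol alongside compound; % is set by controls: 0 for no effect and ±100 for the full control effect; nearly all actives have a fitted effect of over 25% in size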); details: BG1Luc4E2 ERE-luciferase antagonist mode, luminescence; activity change, negative = inhibition: at 70.3 µM (top of the series) unless noted
# Method in brief: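 Endogenous full-length ER-alpha in BG1-Luc-4E2 cells drives a stably integrated 4×ERE luciferase gene; compounds were tested against 17beta-estradiol over 21.5 h, with luminescence and multiplexed viability fluorescence recorded.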
# [16] = qHTS assay to identify small molecule antagonists of the estrogen receptor alpha (ER-alpha) signaling pathway using the BG1 cell line - cell viability counter screen (AID 743081); details: BG1Luc4E2 viability, CellTiter-Fluor, 22 h; activity change, negative = cytotoxicity: at 70.3 µM (top of the series) unless noted;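 note: compound given together with 17beta-estradiol as the ER stimulus; potency is the fitted concentration of half-maximal effect; nearly all actives have a fitted effect of over 45% in size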
# [17] = target: Aryl hydrocarbon receptor (Homo sapiens) (UniProt P35869); test: qHTS assay to identify small molecule that activate the aryl hydrocarbon receptor (AhR) signaling pathway (AID 743085);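 note: HG2L7.5c1 human HepG2 liver cells with stably integrated DRE-driven firefly reporter; % is set by controls: 0 for no effect and ±100 for the full control effect; nearly all actives have a fitted effect of over 15% in size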
# Method in brief: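 A multiplexed format paired cell viability (CellTiter-Fluor fluorescence) with AhR-dependent luciferase output (ONE-Glo luminescence) in the same wells of HepG2 DRE-luc cells after 24 h compound exposure at 37C.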
# [18] = target: Nuclear receptor subfamily 1 group I member 2 (Rattus norvegicus) (UniProt Q9R1A7); test: Rat pregnane X receptor (rPXR) activation by small molecules, qHTS assay (AID 1346983); details: rPXR luciferase reporter cells, One-Glo luminescence, 24 h; max activation: active compounds read high; note: potency is the fitted concentration of half-maximal effect; nearly all actives have a fitted effect of over 20% in size
# Method in brief: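 Cell-based rPXR activation assay: rPXR cells, 2,000 per well, rested 5hr at 37 C, then exposed to compounds in DMSO for 24 hr at 37 C. Luciferase activity read by One-Glo luminescence after 30 min at room temperature.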
# [19] = target: Nuclear receptor subfamily 1 group I member 2 (Homo sapiens) (UniProt O75469); test: CYP3A4 induction through human pregnane X receptor (PXR) by small molecules, qHTS assay (AID 1346984); details: DPX-2 HepG2 PXR, CYP3A4-luciferin luminescence, 24 h; activation: at 46.1 µM (top of the series) unless noted; note: potency is the fitted concentration of half-maximal effect; nearly all actives have a fitted effect of over 40% in size
# Method in brief: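 Read-out is luminescence after One-Glo addition, following a 3 hr, 37C incubation with Luciferin-IPA CYP3A4 substrate (3uM final). Before that, compounds were on DPX-2 cells (HepG2 co-transfected with PXR element plus CYP3A4-promoter luciferase) for 24 hr at 37C.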
# Tags give direction and shape of the fitted curve or compound fluorescence and quenching.
# UniProt P03372, sequence (P03372 whole entry, looked up): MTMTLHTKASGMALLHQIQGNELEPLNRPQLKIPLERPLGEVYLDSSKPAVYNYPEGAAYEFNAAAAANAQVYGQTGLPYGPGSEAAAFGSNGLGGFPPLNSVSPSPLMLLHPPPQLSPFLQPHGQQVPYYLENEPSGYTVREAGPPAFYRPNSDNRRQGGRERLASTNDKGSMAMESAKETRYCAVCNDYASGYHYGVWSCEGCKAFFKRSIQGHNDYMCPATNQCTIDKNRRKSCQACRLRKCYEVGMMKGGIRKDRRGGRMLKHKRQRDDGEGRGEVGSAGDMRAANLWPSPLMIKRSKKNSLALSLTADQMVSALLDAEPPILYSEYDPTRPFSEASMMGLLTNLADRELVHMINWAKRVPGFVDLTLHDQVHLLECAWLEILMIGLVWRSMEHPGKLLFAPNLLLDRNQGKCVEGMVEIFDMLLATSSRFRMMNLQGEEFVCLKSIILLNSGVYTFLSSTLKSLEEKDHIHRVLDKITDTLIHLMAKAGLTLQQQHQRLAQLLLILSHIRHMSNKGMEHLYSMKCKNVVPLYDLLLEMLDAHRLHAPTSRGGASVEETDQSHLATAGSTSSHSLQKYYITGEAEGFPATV
# UniProt P10275, sequence (P10275 whole entry, looked up): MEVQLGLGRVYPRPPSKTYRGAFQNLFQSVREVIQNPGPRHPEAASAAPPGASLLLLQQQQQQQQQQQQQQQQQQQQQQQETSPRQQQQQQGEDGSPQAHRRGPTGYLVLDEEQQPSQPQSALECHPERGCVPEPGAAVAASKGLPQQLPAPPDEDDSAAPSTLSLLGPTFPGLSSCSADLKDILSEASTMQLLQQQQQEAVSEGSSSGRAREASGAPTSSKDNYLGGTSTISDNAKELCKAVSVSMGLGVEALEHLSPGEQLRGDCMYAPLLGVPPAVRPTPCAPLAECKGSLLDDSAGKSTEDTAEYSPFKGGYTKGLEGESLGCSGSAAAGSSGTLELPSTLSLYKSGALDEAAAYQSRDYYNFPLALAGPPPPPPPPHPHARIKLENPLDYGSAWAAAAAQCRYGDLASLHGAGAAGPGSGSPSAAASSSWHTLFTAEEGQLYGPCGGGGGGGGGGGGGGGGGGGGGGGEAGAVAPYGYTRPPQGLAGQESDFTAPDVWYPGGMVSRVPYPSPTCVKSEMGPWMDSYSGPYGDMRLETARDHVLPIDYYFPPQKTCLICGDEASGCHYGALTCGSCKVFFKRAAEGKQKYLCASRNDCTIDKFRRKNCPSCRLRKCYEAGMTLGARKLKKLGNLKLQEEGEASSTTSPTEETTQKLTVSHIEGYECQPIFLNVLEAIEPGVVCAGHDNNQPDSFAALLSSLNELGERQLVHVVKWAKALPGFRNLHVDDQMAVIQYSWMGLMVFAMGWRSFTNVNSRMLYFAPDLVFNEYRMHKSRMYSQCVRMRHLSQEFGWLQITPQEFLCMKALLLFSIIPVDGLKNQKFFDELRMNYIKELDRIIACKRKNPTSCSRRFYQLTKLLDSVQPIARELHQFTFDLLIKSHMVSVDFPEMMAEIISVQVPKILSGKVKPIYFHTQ
# UniProt P06401, sequence (P06401 whole entry, looked up): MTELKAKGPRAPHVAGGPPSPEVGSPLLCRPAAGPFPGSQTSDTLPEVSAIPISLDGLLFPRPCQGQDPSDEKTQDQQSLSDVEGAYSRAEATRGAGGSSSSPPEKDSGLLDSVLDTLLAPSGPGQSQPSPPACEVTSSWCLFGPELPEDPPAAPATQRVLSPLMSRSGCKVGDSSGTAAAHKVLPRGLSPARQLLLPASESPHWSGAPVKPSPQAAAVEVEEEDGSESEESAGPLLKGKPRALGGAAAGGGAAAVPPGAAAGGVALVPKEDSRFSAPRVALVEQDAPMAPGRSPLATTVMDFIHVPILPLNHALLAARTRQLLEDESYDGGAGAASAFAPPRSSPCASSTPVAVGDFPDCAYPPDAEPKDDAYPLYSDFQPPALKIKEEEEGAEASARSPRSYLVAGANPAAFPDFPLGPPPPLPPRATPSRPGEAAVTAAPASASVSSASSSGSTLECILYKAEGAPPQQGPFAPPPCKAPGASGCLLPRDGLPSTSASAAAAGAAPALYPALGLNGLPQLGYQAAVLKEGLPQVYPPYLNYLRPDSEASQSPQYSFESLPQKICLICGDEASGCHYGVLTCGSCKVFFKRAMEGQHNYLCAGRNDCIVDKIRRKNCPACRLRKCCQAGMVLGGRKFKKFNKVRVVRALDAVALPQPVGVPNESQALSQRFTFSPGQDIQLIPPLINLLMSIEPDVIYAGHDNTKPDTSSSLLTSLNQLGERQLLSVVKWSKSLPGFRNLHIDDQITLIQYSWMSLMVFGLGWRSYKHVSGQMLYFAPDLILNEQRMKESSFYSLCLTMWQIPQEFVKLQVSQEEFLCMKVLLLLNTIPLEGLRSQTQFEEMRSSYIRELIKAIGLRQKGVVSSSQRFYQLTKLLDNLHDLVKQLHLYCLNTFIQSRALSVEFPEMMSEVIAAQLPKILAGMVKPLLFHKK
# UniProt P04150, sequence (P04150 whole entry, looked up): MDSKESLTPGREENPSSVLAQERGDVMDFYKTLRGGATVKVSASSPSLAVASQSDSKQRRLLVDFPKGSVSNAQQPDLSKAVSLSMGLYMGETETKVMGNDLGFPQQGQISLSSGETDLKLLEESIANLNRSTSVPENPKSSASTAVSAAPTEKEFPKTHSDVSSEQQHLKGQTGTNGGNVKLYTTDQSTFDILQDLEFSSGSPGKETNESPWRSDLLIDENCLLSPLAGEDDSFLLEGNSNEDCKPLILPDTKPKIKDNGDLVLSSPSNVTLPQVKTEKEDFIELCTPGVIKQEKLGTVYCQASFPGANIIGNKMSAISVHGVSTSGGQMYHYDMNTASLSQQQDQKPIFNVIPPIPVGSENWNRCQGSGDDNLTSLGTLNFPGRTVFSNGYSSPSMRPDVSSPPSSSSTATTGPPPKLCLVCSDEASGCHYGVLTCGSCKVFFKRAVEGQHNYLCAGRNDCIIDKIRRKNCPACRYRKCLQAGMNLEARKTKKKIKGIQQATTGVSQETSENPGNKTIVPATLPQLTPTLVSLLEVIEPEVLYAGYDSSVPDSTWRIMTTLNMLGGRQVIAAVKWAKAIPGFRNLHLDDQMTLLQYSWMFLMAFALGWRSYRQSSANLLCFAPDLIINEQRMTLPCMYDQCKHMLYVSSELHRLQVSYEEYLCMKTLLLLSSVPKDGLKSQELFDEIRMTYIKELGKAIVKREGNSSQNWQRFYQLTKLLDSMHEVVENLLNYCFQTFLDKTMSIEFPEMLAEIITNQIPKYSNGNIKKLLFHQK
# UniProt P35869, sequence (P35869 whole entry, looked up): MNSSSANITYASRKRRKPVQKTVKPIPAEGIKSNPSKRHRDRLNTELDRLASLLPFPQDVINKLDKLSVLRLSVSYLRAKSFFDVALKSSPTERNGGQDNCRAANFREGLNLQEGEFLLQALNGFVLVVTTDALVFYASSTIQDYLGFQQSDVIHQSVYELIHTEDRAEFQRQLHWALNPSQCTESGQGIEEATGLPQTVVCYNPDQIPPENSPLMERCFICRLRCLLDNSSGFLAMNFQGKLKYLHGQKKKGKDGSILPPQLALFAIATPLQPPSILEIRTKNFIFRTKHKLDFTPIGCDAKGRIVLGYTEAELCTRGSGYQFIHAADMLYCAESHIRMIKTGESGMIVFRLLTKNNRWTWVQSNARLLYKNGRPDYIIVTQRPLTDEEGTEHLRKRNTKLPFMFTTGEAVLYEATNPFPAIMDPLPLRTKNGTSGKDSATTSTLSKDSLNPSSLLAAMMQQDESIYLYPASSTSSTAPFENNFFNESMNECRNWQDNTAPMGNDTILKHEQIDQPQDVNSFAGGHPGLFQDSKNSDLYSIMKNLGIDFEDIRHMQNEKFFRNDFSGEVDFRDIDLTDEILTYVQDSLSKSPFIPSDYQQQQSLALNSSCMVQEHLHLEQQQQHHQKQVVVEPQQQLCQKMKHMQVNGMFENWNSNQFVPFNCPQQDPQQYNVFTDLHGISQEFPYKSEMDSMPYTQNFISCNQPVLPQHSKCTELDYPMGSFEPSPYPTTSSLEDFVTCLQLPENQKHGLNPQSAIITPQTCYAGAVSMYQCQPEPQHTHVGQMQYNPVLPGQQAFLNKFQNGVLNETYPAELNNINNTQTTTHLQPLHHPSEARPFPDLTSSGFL
# UniProt P37231, sequence (P37231 whole entry, looked up): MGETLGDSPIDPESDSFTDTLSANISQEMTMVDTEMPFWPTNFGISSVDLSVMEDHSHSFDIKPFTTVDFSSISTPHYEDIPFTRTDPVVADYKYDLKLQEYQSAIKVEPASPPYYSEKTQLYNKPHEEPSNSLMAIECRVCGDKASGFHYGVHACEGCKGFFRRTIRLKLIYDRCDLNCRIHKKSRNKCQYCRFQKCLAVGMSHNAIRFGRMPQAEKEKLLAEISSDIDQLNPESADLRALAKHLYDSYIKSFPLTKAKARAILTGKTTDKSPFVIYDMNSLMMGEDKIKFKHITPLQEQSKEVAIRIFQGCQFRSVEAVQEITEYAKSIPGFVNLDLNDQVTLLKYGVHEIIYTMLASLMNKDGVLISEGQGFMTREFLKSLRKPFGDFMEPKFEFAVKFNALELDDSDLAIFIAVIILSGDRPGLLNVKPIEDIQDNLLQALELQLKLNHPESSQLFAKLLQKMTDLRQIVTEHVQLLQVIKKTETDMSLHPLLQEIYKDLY
# UniProt Q9R1A7, sequence (Q9R1A7 whole entry, looked up): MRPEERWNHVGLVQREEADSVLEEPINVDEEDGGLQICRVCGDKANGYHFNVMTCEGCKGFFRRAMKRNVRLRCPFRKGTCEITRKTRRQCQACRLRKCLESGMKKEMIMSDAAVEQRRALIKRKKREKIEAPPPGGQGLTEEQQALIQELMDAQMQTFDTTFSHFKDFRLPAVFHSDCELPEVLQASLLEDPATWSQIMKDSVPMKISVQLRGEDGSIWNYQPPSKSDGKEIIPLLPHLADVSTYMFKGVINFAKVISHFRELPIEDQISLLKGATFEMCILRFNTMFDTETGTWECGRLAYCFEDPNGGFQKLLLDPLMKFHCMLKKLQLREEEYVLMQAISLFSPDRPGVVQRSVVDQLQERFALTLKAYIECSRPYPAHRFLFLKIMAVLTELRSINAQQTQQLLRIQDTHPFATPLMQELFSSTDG
structure (smiles),measurement,setting,value
CCCCCCCCCCCCCc1ccccc1,Potency,[1],inactive
O=C(O)/C=C(\CC(=O)O)C(=O)O,Potency,[2],inactive
same,Potency,[3],inactive
same,activation,[4],inconclusive: 18.7% [phenotype inactive]
same,"ratio activity, negative = inhibition",[5],inconclusive: 10.2%
same,Potency,[6],"inconclusive [cytotoxic, partial curve]"
same,Potency,[7],inactive
same,Potency,[8],inactive
same,Potency,[9],"inconclusive [inhibitor, partial curve]"
CC(=O)O[C@H]1C(=O)[C@@]2(C)[C@H]([C@H](OC(=O)c3ccccc3)[C@]3(O)C[C@H](OC(=O)[C@H](O)[C@@H](NC(=O)c4ccccc4)c4ccccc4)C(C)=C1C3(C)C)[C@]1(OC(C)=O)CO[C@@H]1C[C@@H]2O,Potency,[10],inconclusive [activator]
same,Potency,[11],inactive
same,Potency,[12],active: 0.952 µM
same,activation,[13],inconclusive: 17.5%
same,Potency,[14],active: 0.266 µM
same,Potency,[4],"inconclusive [inhibitor, partial curve, poor fit]"
same,"activity change, negative = inhibition",[15],inconclusive: -4.44%
same,Potency,[16],"inconclusive [cytotoxic, partial curve]"
same,Potency,[17],inactive
same,Potency,[18],"inconclusive [activator, full curve, poor fit]"
same,Potency,[19],active: 6.31 µM
